Source: the supplement of paper PMC8277577
Recombinant human monoclonal antibodies (heavy:light variable regions). ELISA EC50 on the named antigen, from 10 µg/ml down; lower = stronger. No active / inactive call.

Target: SARS-CoV-2 Wuhan-Hu-1 spike receptor-binding domain
Assay: ELISA binding EC50; higher = weaker binding; ELISA of recombinant human antibody on coated antigen, from 10 µg/ml in fourfold dilutions; four-parameter fit.

Row | Binder | ELISA binding EC50
1 | C848 (protein) chain 1: QVQLQESGPGLVKPSQTLSLTCTVSGGSISSGDYYWSWIRQPPGKGLEWIGYIYYTGITYYRPSLKSRVTISVDTSKNQFSLKLSSVTAADTAVFYCARVVRLWPRYFDSWGQGTLVTVSS chain 2: QSALTQPPSASGSPGQSVTISCTGTSSDVGTYDYVSWYQQHPGKAPKVIIYEVTKRPSGVPDRFSGSKSGNTASLTVSGLQAEDEAHYYCSTYAGSDNLEFGGGTKLTVL | 2.23 ng/mL
2 | C924 (protein) chain 1: QVQLVESGGGVVQPGRSLRLSCAASGFTFSSYGMHWVRQAPGKGLEWVAVISDDGSNKYYADSVKGRFTISRDNSKNTLYLQMNSLRAEDTAVYYCAKSWWLSENWFDPWGQGTLVTVSS chain 2: EIVMTQSPATLSVSPGERATLSCRASQSVSSNLAWYQQKPGQAPRLLIYGASTRATGIPARFSGTGSGTEFTLTISSLQSEDFAVYYCQQYNNWPLTFGGGTKVEIK | 2.5 ng/mL
3 | C925 (protein) chain 1: QVQLVESGGGVVQPGRSLRLSCAASGFTFSNYGLHWVRQAPGKGLEWVAVTSDDGNRKYYADSVKGRFTISRDDSKNTLYLQMNNLRTEDTAVYYCAKSWWLSENWFDPWGQGTLVTVSS chain 2: EIVMTQSPATLSVSPGERATLSCRASQSVRSNLAWYQQRPGQAPRLLIYGAFTRATGIPARFSVSGSGTEFTLTIDSLQSEDFAVYYCQQYNNWPLTFGGGTKVEIK | 2.26 ng/mL
4 | C926 (protein) chain 1: QVQLVESGGGVVQPGRSLRLSCAASGFGLITYSMHWVRQAPGKGLEWVGLISFDGNTTYYADSVRGRFTISRDNLANILYLQMNSLRPDDTALYYCARDKRGVIRGLLNFWGQGSLVTVSS chain 2: DIVMTQSPDSLAVSLGERATINCKSSQSLLPSSNSNNYLAWYQQKSGQPPNLLIYWASTRESGVPDRFSGSGSETDFSLTISNLQAEDVAVYYCQQYYNTPHTFGGGTKVEI | 4.72 ng/mL
5 | C927 (protein) chain 1: QVQLVESGGGVVQPGRSLRLSCVASGFTFSYFDMHWVRQAPGKGLEWVALISHDGSTTFYGDSARGRFTISRDNSRNTLDLQMNSLRPEDTAVYFCAKPVDAAMFDFWGQGTLVTVS chain 2: SYELTQPPSVSVAPGKTARITCGGNNIGSKSVHWYQQRPGQAPVLVIYYDSDRPSGIPERFSGSNSGNTATLTISRVEAGDEADFYCQVWDRSTNHLVVFGGGTQLTVL | 3.77 ng/mL
6 | C928 (protein) chain 1: QVQLVESGGGVVQPGRSLRLSCAASGFTFSFFDMHWVRQAPGKGLEWVADISYDGSNQYYGDSVKGRFTISRDNSKSTLYLQMNSLRAEDTAVYYCAKPVDTAMFDSWGQGTLVTVSS chain 2: SYELTQPPSVSVAPGETARITCGGNNIGHKSVHWYQQQPGQAPVLVIYYDSERPSGIPERFSGSNSGNTATLTISRVEAGDEADYHCQVWDGGNDHLVIFGGGTKLTVL | 4.14 ng/mL
7 | C929 (protein) chain 1: EVQLVESGGGLIQPGGSLRLSCAASGFTVSSNYMTWVRQAPGKGLEWVSVIYSGGTTYYADSVKGRFTISRDNSKNTLYLQMNSLRAEDTAVYYCARDLVVWGMDVWGQGTTVTVSS chain 2: DIQLTQSPSFLSASVGDRVTITCRASQGISSYLAWYQQKPGKAPKLLIYAASTLQSGVPSRFSGSGSGTEFTLTISSLQPEDFATYYCQLLNSYPYTFGQGTKLEIK | 2.07 ng/mL
8 | C930 (protein) chain 1: EVQLVESGGGLFQPGGSLRLACAASGITVSSNYMSWVRQPPGKGLEWVSVIYAGGSTFYADSVKGRLTISRDNSKNTLYLQINSLRAEDTAVYYCARDLVVWGMDVWGQGTTVTVSS chain 2: DIQLTQSPSFLSASVGDRVTITCRASQGISSYLAWYQQKPGKAPKLLIYAASTLQSGVPSRFSGSGSGTEFTLTISSLQPEDFATYYCQQLNTYPYTFGQGTKLEIK | 1.24 ng/mL
9 | C932 (protein) chain 1: QVQLVESGGSVVQPGKSLRLSCAGSGFAFSTYGMHWVRQAPGKGLEWVAVISSDGGNKYYADSVKGRFTISRDNYENTLYLQMNSLGAEDTAVYYCAKVALRGVFISLYYGMDVWGQGTTVTVSS chain 2: SYELTQPPSVSVTPGQTASITCSGDKLGDKYACWFLQKPGQSPLLVIYQDTKRPSGIPDRLSGSKSGNTATLTISGTQAMDEADYYCQTWDSSAVVFGGGTKLTV | 3.57 ng/mL
10 | C849 (protein) chain 1: QVQLVQSGAEVKKPGASVKVSCRASGYTFTDHYIHWVRQAPGQGLEWMGWINPNSGDTNYPQKFQGRVTMARDTSISTAHMELRRLKSDDTAVYYCARTSSPHSSSTGDFDSWGQGTLVTVSS chain 2: SYELTQPPSVSVAPGKTARITCGGDDIGSKSVHWYQQKSGQAPVLVIHDDSDRPSGIPERFSGSNSGNTATLTISRVEAGDEADYYCQVWDFTGDHPGWVFGGGTKLTVL | 3.64 ng/mL
11 | C934 (protein) chain 1: QVQLVQSGAEVKKPGASVKVSCKASGYTFTDYYIHWVRQAPGQGLEWMGWINPNSGGTNYAQKFQGRVTMTRDTSISTAYMDLSRLRSDDTAVYYCARDVIITMGRGVVFRMDVWGQGTTVTVSS chain 2: not shown | 0.95 ng/mL
12 | C935 (protein) chain 1: QVQLVESGGGVVQPGRSLRLSCAATGFTFSSYGMHWVRQAPGKGLEWVALIWYDGSNQYYVDSVKGRFTISRDNSKKTLYLQMNSLRVEDTAVYYCARDFSNSDMVTLSDAFDIWGQGTMVTVSS chain 2: DIQLTQSPSFLSASVGDRVTIACRASQGISSYSSYLAWYQQKPGKAPKLLIYAASTLQSGVPSRFSGSGSGTEFTLTISSLQPEDFATYYCQQLNSYPLFTFGPGTKVDIK | 2.86 ng/mL
13 | C936 (protein) chain 1: EVQLVESGGGLIQPGGSLRLSCAASGFTVSSNYMSWVRQAPGKGLEWVSVIYSGGSTFYADSVKGRFTISRDNSKNTLYLQMNSLRAEDTAVYYCARDLGTGLFDYWGQGTLVTVSS chain 2: DIQLTQSPSFLSASVGDRVTITCRASQGISSYLAWYQQKPGKAPKLLIYAASTLQSGVPSRFSGSGSGTEFTLTISSLQPEDFATYYCQQLDSYPPGTFGPGTKVDIK | 1.56 ng/mL
14 | C937 (protein) chain 1: EVQLVESGGGLIQPGGSLRLSCAASELTVSSNYMSWVRQAPGKGLEWVSVIYPGGSTFYADSVKGRFTISRDNSKNTLYLQMNSLRAEDTAVYYCARDLGTGLFDYWGQGTLVTVSS chain 2: DIQLTQSPSFLSASVGDRVTITCRASQGISSYLAWYQQKPGKAPKLLIYAASTLQSGVPSRFSGSGSGTEFTLTISSLQPEDFATYFCQLLNSNPPGTFGPGTKVDIK | 0.97 ng/mL
15 | C938 (protein) chain 1: QVQLVESGGGVVQPGRSLRLSCAASGFTFRSHAMHWVRQAPGKGLEWVAIISSDGFNKYYADSVKGRFTISRDNSKNTLYVHMNSLRVEDTAIYYCASGLLWFETREISGAPDYGMAVWGQGATVTVSS chain 2: DIQMTQSPSSLSASVGDRVTITCRASQNISNFLNWYQQKPGKAPKLLIYAASSLQSGVPSRYSGSGSGTDFTLTISSLQAEDFATYYCQQSYSTPLTFGGGTKVEIK | 2.63 ng/mL
16 | C939 (protein) chain 1: QVQLVESGGGVVQPGRSLRLSCAASGFTFSSYAMHWVRQAPGKGLESVALISHDGSNKYHADSVKGRLTISRDTSKNTLYLQMDSLRPEDTAVYYCASGLLWFETAGGSGAPDYGMAVWGQGTTVTVSS chain 2: DIQMTQSPSSLSASVGDRVTITCRASQSISTYLNWYQQKPGRAPKFLIYAASSLQSGVPSRFSGSGSGTDFTLIISGLQPEDFATYFCQQSYNTPLTFGGGTKVEIK | 3.62 ng/mL
17 | C940 (protein) chain 1: QVQLQESGSGLVKPSQTLSLTCAVSGGSASSGGYSWSWIRQPPGKGLEWIGYIYHSGSTYYNPSLKSRVTISLDRTKKQFSLKLSSVTAADTAVYYCARFCLSGSHYLFAFDIWGPGTMVTVSS chain 2: QSALTQPASVSGSPGQSITISCTATSSDVGGYNFVSWYQQYPGKVPKLLIYDVGNRPSGVSNRFSGSKSGNTASLTISGLQAEDEADYYCSSYTNSSTFFGGGTKLTVL | 1.79 ng/mL
18 | C941 (protein) chain 1: QVQLVQSGAEVKKPGSSVKVSCKASGGTSRSYPISWVRQAPGQGLEWMGRIIPIVGTANYAQRFQGRVTITADESTGTAYMELSSLRSEDTAVYYCARNRGYSDYGSVYYFDYWGQGTLVTVSS chain 2: QSVLTQPPSVSGAPGQRVTISCTGSSSNIGAGYDVHWYQQLPGAAPKLLIYRNINRPSGVPDRFSGSKSGTSASLAITGLQADDEADYYCQSYDSSLSGSVFGGGTKLTV | 0.88 ng/mL
19 | C850 (protein) chain 1: QVQLQESGPGLVKPSETLSLICSVSGVSVSSRNFFWSWIRQPPGKGLEWIGYMSYGGNTNYNPSLKSRVTISIDTSKNQFSLKLSSVTAADTAVYYCARETYYYDRSGYYSSDGFDYWGQGILVTVSS chain 2: EIVLTQSPGTLSLSPGERATLSCRASQSITSSSLAWYQQKRGQPPRLLIYGASSRATGIPDRFSGSGSGTDLTLTISRLEPEDFAVYYCQQYGNSPYTFGQGTKLEIK | 3.7 ng/mL
20 | C945 (protein) chain 1: QVQLVQSGAEVKKPGASVRISCKASGYTFTNYYMHWVRQAPGQGLEWMGIINPSGGSTTYAPKFQARVTMTRDTSTSTVYMELSSLRSDDTAVYYCARDYVLVPARSGMDVWGQGTTVTVS chain 2: EIVLTQSPATLSLSPGERATLSCRASQSVSSYLAWYQQKPGQAPRLLIYDASNRATGIPARFSGSGSGTDFTLTISSLEPEDFAIYYCQQRSNWPYTFGQGTKLEIK | 3.13 ng/mL
